# Assay results reported in the supplement of paper PMC10681739.
# Whole data set: some 2,700 sequences, median “arbitrary fluorescence units” near 4,100, cut for the highest 2% near 54,000. The list shows a part of the results.
# Biological target: T1, ETS1 (UniProt P14921)
# T1 sequence: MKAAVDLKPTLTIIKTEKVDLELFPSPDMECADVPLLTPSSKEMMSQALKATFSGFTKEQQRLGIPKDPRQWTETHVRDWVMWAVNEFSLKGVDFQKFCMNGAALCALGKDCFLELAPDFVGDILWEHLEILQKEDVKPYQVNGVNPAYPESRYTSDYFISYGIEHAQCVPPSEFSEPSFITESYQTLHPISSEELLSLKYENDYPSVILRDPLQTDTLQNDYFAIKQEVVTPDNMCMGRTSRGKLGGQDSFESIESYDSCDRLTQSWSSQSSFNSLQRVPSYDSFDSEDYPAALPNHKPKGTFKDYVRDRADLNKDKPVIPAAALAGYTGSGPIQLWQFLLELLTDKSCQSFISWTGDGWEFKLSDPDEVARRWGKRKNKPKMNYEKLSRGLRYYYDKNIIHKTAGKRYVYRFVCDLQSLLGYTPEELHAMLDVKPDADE
# Experiment: ETS1 binding intensity (PBM fluorescence) (arbitrary fluorescence units); higher = stronger binding
# Conditions: ETS1 concentration 10 nM
# Experimental: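 gcPBM on wild-type 36-bp genomic probes with two neighbouring ETS1 sites (4-24 bp apart). Recombinant human ETS1 (10 nM) was detected with anti-ETS1 antibody fluorescence. Values are medians over 3 replicate spots. The probes sit in constant array flanks that are not printed.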
row,Sequence,ETS1 binding intensity
1,AAACACGGAAATAACTTTTTTCTAACTTCCCGTAGT,1780
2,CGAGCGGAAGCGCAGGCCTGGCCGTCAGTTCCGGAC,4300
3,CGAAACTTCCGGGGCTTCTTCGATTACTTCCGGTTC,49200
4,TCCCAGGCTCGGTGGAAGGCGGATGGCGGATGTCCG,374
5,GAAGGTATTTCCTGGCTCGTGAGTAGGAAATGTAAC,11900
6,TGCCCGGCTTCCGGGTGGCTGCGCGGAAGCGCGGTG,20900
7,CTGAAGCGGAAACACGTTTTTTCAAGTTCCTGTATT,5930
8,CACCTAGAGGAAACTCCAGGCACAGGAAGTGGTTCA,2250
9,TGCCTAGCTTCCTGCTTCTTGGCCTTCCTGCCACTC,14700
10,CCGCCCGCCGGAAGTGGCGGCCCGGAACTACTCCCA,23700
11,TTAGCGAGGAGGGCGGAACGGAAACGCTCAGGCCCT,428
12,CACGGTGATTTCCTGTAAACAACAGGAAATGTACAG,22700
13,TTTCTATCCTGCTGGCTGGAGGGTCCCGGAAGGGGA,430
14,TGGTGTTATTTCCTGTGTTAGACTTCCTACTTACTG,24300
15,GCCGATTTCCTTTTCATTACTGCCACTTCCTCTGCG,16500
16,GCTCGTCCCCATCCGGGACGCGTTTCCGCCGCCGCC,7320
17,ATGGACACCGGAACTCAGAGTCCTTCCTCCTCTGCC,3140
18,GAGACGGGACTTCCGGCTCCCGGGGAAGTCCCGCCC,53500
19,TGGTTGTACTTCCCTTGCTCTCAGGAAGCTCATTCA,1840
20,GGACACAGGAAGACACACACGCACAGGAAGAAAGCT,1600
21,TATAAAGGATGTGGGGTTGCAGAAACAGGAAATGAA,1430
22,ATGTCTGGGAAATGTAGTTTCTCAGCATCCGGTTAT,2320
23,GGGCTGCCCGGCCTTCCACTTCCGGCGCGGAAGTTG,23400
24,GCTGAGGCTTCAGGAAGCCACATCCTGGAGGGAGCT,1830
25,GCGCCTTCCGCTCCGCCCCTTCAGGCAGGAAGTGTC,12800

row,Sequence,ETS1 binding intensity
1,CCCAGGATGGGCTCCATGACGCTGGGCCGGAAGAAG,248
2,CACGCACATCATCCGGCACCATTTCCGTGCCCCGAA,4750
3,CGCCCGCGCCTCCGGAACAGGAAACCGAGGGAATTA,2050
4,AAGGAGCCTTCCTGTAAGTCTCTCTTCCTCCCTTTC,2940
5,TATATCACCACAGGAAGCACATCCTGTCAGGTTGTC,13600
6,CACCAACTTCCTGGGCTCAAGCAATCTTCCTGCATC,19200
7,CCTCCACTTCCTGGGTTCAAGTGATTTCCTGCCTCA,20700
8,GAGCCACTTCCTCCAGGAGCCAGGGCGGATGCAACC,14400
9,AGGCAGGAAGAGGAGGGGAGGGTCCCACATCCTTCC,766
10,CTTCGTGGTTTTCCTGGGAGCATTTCCTGAGCGCTA,1360
11,AGGCCACACTTCCCCTCGGGCGGCTTCCTGTTTTGG,7230
12,CCCCACCTCTTTCCTGTTGAGTAGGAAGTCCCCTTA,4230
13,CTCGGTGGAAGGCGGATGGCGGATGTCCGAGTTAGT,306
14,TTGACTTCCTGCTTTAGATTTTTTGACTTCCTGAAC,43000
15,TGGCTGGAGGCAGGAAGTCAGGAAGGAGGCCACTGT,6930
16,CGCCGCTTCCGGGCCCCGCCGCCTGCCGGAAGTGGA,36900
17,CGGACTTCCTGCTAGTTAGGCCCGCCTCTTCCGCAG,36200
18,GGAGATGTGCAGGAAGTGAACTTCCTGGGGCTGAGG,11400
19,GACAGGAAGCCAGCAGGCAGGGAGCCTGGGAAATGT,3140
20,GAAGAACGGAAGAGAGAGAGCTGCACTTCCGAACCG,1330
21,AGCCTGTTTCCGCTCGGGCATTCTGGGAAGTGTAGT,13300
22,TATTCTCATCCGGGGTCACGTCGGTCTTCCGGGTGT,7280
23,TCCTTAGAGCGGAAGTACGGCCGGAAGCCCGCCATA,15200
24,GAGTTATGGCTTCCTGTACACATTCCTGCCATTTTA,18400
25,CTGCAGGATGTTCTAACCATGAGCCCAGGATGTGGT,1180

row,Sequence,ETS1 binding intensity
1,ACTCCCACCCCACTTCCTGAGGAAATAGTTGTGGTA,6550
2,GGCTTTCAGCTTCCTGACTCACTTCCCCATTTTCTA,4300
3,CATTCAGGAAAAGCAGCTGGTTGACAGGAAGCCTGC,242
4,GCAGCTCGGATGTGGAGGGTGTAAGTTTCCGGTGGG,3080
5,GCATATTTTTAGGATGTGGGAGGAAACAAGAGCAAA,313
6,CCGGGAGAGCGGCGGAAGCAGGAAATGCTAAAGGTA,6050
7,GGCTCCTTCCTGTGTGGGCCCCTTGGTTTCCTGAGC,16700
8,GTCAGCTGGAGGAAGCGGAGTAGGAAGCGGCCGCGA,329
9,CTGCTGCCCTGCAGGAAGCGGATGCCAGCCTGGCGG,1620
10,GACTCGTGTTTCCGGGTATGACCGGAAATAGCGCAT,19200
11,GCTGGCTTCCTGCCTTCACTGCACCGCTTCCGTAGG,24200
12,AGGCCCCGCCCGGAAAAACAACATCCTGGCTGCTAG,2310
13,GCGATACGGCCAACTTCCTTCCGCGAAGCCCTCAGG,2720
14,CACCACCCGGAAAAGAACGACCGCTTCCGCACTCCC,1790
15,AACCTCGATTTTCTTCCGCCATCCGGCTAAATAGTC,946
16,CTGCTACAGGAAATCGCTTGTTATTTCCTGTAATGC,10900
17,CTGACACAGGGCAGGAAGCCGGAAGCCCACAGTCAT,2920
18,TAGCAAGTCACATCCCATGACATCCAGGATGCCCTC,389
19,AGATACTCCATTTCCTTTCTAGGGAAGTCTGCCTGC,12900
20,TGGAGACTCACTTCCTAGATGAGGAAGTGAAGCTTA,2380
21,TTCAGGAAACACCCACAGTGCTCAGACAGGAAATTC,718
22,GAGCCCACATCCGGGAGAGGAGAGCGGAAGTGGCGT,23100
23,CGCGGAACCCGGAAGTGGTCACGGAACTCGGCTGCG,19600
24,GTGCCTCCGGAAGAGCTCCAAACCCGGAAGCAGGCG,4030
25,TTAGGTTCTCTTCCGCCCTAGCCGGAAGTCACGGTA,7640

row,Sequence,ETS1 binding intensity
1,TACCTCTGCTGAGGAAGCAACTTCCTGTACTGTGAA,7310
2,GGAGACAGGAACAAACTCTGTGTATCGGAAGCACAG,175
3,TGCTAAACGGAAGTGGTTGTGGAGCATCCGGCTCTG,9960
4,TCAGCTTCCTGAGTAGCTGGGACCACAGGAAGGCAC,10900
5,GTGGAGGAAACAAGTTGGTGGTTTCTACATCCTGCT,556
6,TTCTGCTTCCTGTTTCTGGTACCCGCTTCCTGAGGG,52200
7,CATTTACCACTTCCTGAGGTCATTTCCTGTTTTCTT,25800
8,CTACTACAGGAAGCTGATGAATCAGGAAGCTGCTCA,3750
9,ACGGACACAGGGAAACGTCACAGGAAAGGGAGCCCA,176
10,TTCTGCCACAGGAAGTCAGCGCATCCGCGGGGCCGA,7570
11,GAACCGGCGCTTCCTTTCGCCGCTTCCGCCGCCATC,8630
12,CTGCGCCCGACGGCGGAAGTTCCGGGAGTGCCAAGT,4510
13,GGCTGGGAAATGTAGTCTGTGTGTCCAGGAAGTAAA,248
14,GCCCGGAACCGCTGCAGCAGCCCGAGCCGGAAGTGC,2500
15,TGCCACAAGGGAAGTAGTGTTACTTCCTGTCTCTGA,14200
16,CCCCATTTCCCGTAAGGCAACAGATGTTTCCTGTGC,7010
17,CCTTAGATCCTGTTTATGCAGCCTGGTATCCTGTTG,2510
18,AGTGAATTGCTTCCTGTGTCTGCTTCCTGAGCTTAT,23300
19,AAGAAAAGAACGGATGAGAGAGGAAACGGTCGACGG,442
20,CAACAATACAGGATGTCAGTACAGGAAATGCAGGGA,6360
21,GCATCTCAAAGAGGAAGCCAGGAAACACTCTCACCT,539
22,TTAAGGCCGGAAACACGTCGGAGGCGGAAAACCCTG,9120
23,TGCTGGAGATGAGGAAGTGAGGAAATACCCAGGGCG,518
24,GCCTCACTTCCTGTGTTCAAGTGACAGGATGTGACA,70700
25,CCCGGCGGATACAAGGGGGCTCCGCCATCCGCTCCC,394

row,Sequence,ETS1 binding intensity
1,AGCCCCACCATTTCCTGTGACTTCCTGGAGCCTGGC,25600
2,TGGCCTTTCACTTCCTGTCCCTTCCTCCAACCCCAA,31600
3,AGGTGGCAGGAATGTGCTGTGGGCTTCCGGGACACA,586
4,CTGGGCAATCTCACTTCCCTTCCTGCCTTCCTTGGA,3680
5,AAAGTTTCCGCCCATACCATTGAATAACATCCTGTT,19800
6,CAGAGGAAATCGTATTTTCAGAAGCAACTTCCTTCA,918
7,CCTACAATTCCTGTTTTGGAGACCGCTTCCGGCAGC,3700
8,GTGACTCCATTTCCTGCCTACACTTCCGCTAGCTCT,33400
9,CAGACACACGTCTTCCGGGTTTCCTACGAATCAGAC,7820
10,GTCCTACCTTTCCGTTCTCAAGCAGGATATGCTGGG,1730
11,AAGCTCCAGGAAACCCAAGCCCGCAGGATGCCAGAG,274
12,CAGATTCCTCCGGAATATAGCGGAAGCGCGGGGTTG,1170
13,TGACCACTTCCTGGGGTAACTCCCCCGGAAATGCCC,19000
14,TCAGATTCATGCTTCCTGTCCTTCCTGAAAACTGGC,12200
15,TGAAAAGGAAATATAAAGATGCAGGAGGAAGGGGCA,266
16,GATCCACCTCCACTTCCTGTTTCCGCAGCCGCCCTA,28300
17,ATTGAAGCTTCCTGGGAAGAGAACATCCTGAAGATT,4500
18,CTTGTCGCTTTTCCTGGCTCGTTTCCGCTCTGCCTG,6490
19,ACATTTCCCAGCGGGCCGCGCGCCCTCCTTCCGGCA,790
20,CTTCTGTTCGGACGGAAAAAGGAAACGGTAGGCAGT,271
21,GGGCCAGGAAACTTTGTGTTCTTTGCAGGAAGCAGA,234
22,CACAGATCTTCCTGTCTGGAGCATTTCCGGCCCTTC,17300
23,TTAAAATAACATTTCCTACTCTTCCTGCTTCTGGTC,1510
24,CCCTATCCGGGCCTGGGAGGCCTCCTACGGAAGAAA,2290
25,TGTGCACATCCTCCAGAAGATGCACATCCTCCAGAA,2450
